Measured values published in patent US20250333541A1, “ANTIBODY, AND DRUG CONJUGATE AND USE THEREOF” (EVOPOINT BIOSCIENCES CO., LTD., priority 2022, published 2025).

Assays:
c.TF-His [1] = assay: Antigenic protein-based ELISA on cynomolgus monkey TF-His; type: binding; conditions: coated cynomolgus monkey TF-his protein
NCI-H358 cells = assay: Endocytic activity by flow cytometry (FACS); type: cell-based
[2] = test system: TF high-expressing cell line KYSE520; assay: Flow cytometry cell binding, KYSE520; type: cell-based
h.TF-His [3] = molecular target: T1, h.TF-His (Homo sapiens, UniProt P13726); assay: Antigenic protein-based ELISA on human TF-His; type: binding; conditions: for h.TF-His EC50: coated human TF-his protein; for binding activity (in words): to human/cynomolgus TF-his and TF-positive cells
T1 construct: with the extracellular segment of aa 33-aa 251; His; made in house; host or cells: HEK293-EBNA

TF antigen = molecular target: T2, TF antigen (Homo sapiens, UniProt P13726); assay: Affinity ELISA before and after conjugation with B81; type: binding; conditions: antibody before and after conjugation with B81 (DL-01), DAR8 method
T2 construct: with the extracellular segment of aa 33-aa 251; His; made in house; host or cells: HEK293-EBNA

[4] = test system: TF low/medium-expressing cell line NCI-H358; assay: Flow cytometry cell binding, NCI-H358; type: cell-based
[5] = test system: coagulation initiated by TF on the cell surface (MDA-MB-231 cells); assay: Effect on coagulation initiated by TF-positive cells in human plasma; type: cell-based; conditions: combining the results of the two experiments
c.TF-His [6] = assay: Dynamic affinity by ForteBio, cynomolgus TF-His; type: binding, cynomolgus monkey
[7] = test system: TF-positive tumor cells KYSE520; assay: In vitro killing activity assay on ADCs; type: cell-based; conditions: after the conjugation with B81, 120 h, CCK8
[8] = Antibody hydrophilicity/hydrophobicity assay by HIC; type: physicochemical; conditions: retention on hydrophobic chromatography column
h.TF-His [9] = molecular target: T1, h.TF-His; assay: Dynamic affinity by ForteBio, human TF-His; type: binding
[10] = test system: TF antigen-positive NCI-H358 cells; assay: Cell-based ELISA on NCI-H358 cells; conditions: fixed NCI-H358 cells
[11] = Serum stability in human serum; type: in vitro ADME; conditions: 20 μg/mL, 37° C., 14 days, ELISA
[12] = test system: subcutaneous KYSE520 xenograft; assay: In vivo efficacy in subcutaneous KYSE520 xenograft; design: species or system Balb/c Nude mice; conditions: for anti-tumor effects in mice (in words): after the conjugation with B81; for TGI: i.v., QW*3

T1 sequence (P13726 33-251): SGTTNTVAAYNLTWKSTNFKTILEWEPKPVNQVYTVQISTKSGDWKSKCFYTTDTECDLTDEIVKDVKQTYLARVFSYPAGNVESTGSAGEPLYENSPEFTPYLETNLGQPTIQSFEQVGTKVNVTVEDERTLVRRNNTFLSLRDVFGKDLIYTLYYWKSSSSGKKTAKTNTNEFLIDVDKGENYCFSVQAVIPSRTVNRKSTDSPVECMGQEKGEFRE
T2 sequence (P13726 33-251): as above

B1: 2B12B10-hz1 (antibody)
heavy: EVQLVESGGGLVQPGGSLRLSCAASGFAFSDSGMHWVRQAPGKGLEWVAYISRDSNTIYYADSVKGRFTISRDNAKNSLYLQMNSLRAEDTAVYYCGRRYYGDYFDYWGQGTLVTVSS[sequence of human IgG1 constant region omitted]
light: DIVLTQSPATLSLSPGERATLSCRASQRVTNYLHWYQQKPGQSPRLLIKYASQSISGIPARFSGSGSGTDFTLTISSLEPEDFAVYFCQQSYNWPLTFGQGTKVEIKRTVAAPSVFIFPPSDEQLKSGTASVVCLLNNFYPREAKVQWKVDNALQSGNSQESVTEQDSKDSTYSLSSTLTLSKADYEKHKVYACEVTHQGLSSPVTKSFNRGEC
c.TF-His EC50 (c.TF-His [1]): 13.63 ng/mL
endocytosis rate compared with reference antibody (in words) (NCI-H358 cells): substantially comparable to that of the reference antibody
KYSE520 EC50 [2]: 140.3 ng/mL
h.TF-His EC50 (h.TF-His [3]): 6.724 ng/mL
binding activity (in words) (h.TF-His [3]): good binding activity
EC50 (TF antigen): 6.65 ng/mL
NCI-H358 EC50 [4]: 187.4 ng/mL
effect on human coagulation (in words) [5]: least effect on human coagulation
ka (c.TF-His [6]): 344000 M⁻¹ s⁻¹
kdis (c.TF-His [6]): 0.0116 s⁻¹
killing IC50 compared with reference antibody ADC (in words) [7]: substantially comparable to that of the reference antibody ADC
HIC [8]: 12.56 min
ka (h.TF-His [9]): 209000 M⁻¹ s⁻¹
kdis (h.TF-His [9]): 0.00289 s⁻¹
NCI-H358 EC50 [10]: 3.877 ng/mL

B2: 30G11B7-hz1 (antibody)
heavy: EVQLVESGGGLVKPGGSLRLSCAASGFTFSDYGMFWVRQAPGKGLEWVAYISRGSTTIYYADSVKGRFTISRDNAKNSLYLQMNSLRAEDTAVYFCTRRYYGDYFDYWGQGTLVTVSS[sequence of human IgG1 constant region omitted]
light: EIVLTQSPDFQSVTPKEKVTITCRASQSISNYLHWYQQKPDQSPKLLIKYASQSISGVPSRFSGSGSGTDFTLTINSLEAEDAATYFCQQSYNWPLTFGQGTKVEIKRTVAAPSVFIFPPSDEQLKSGTASVVCLLNNFYPREAKVQWKVDNALQSGNSQESVTEQDSKDSTYSLSSTLTLSKADYEKHKVYACEVTHQGLSSPVTKSFNRGEC
c.TF-His EC50 (c.TF-His [1]): 20.79 ng/mL
endocytosis rate compared with reference antibody (in words) (NCI-H358 cells): substantially comparable to that of the reference antibody
KYSE520 EC50 [2]: 138.3 ng/mL
h.TF-His EC50 (h.TF-His [3]): 7.912 ng/mL
binding activity (in words) (h.TF-His [3]): good binding activity
EC50 (TF antigen): 7.68 ng/mL
NCI-H358 EC50 [4]: 145.1 ng/mL
ka (c.TF-His [6]): 364000 M⁻¹ s⁻¹
kdis (c.TF-His [6]): 0.053 s⁻¹
killing IC50 compared with reference antibody ADC (in words) [7]: substantially comparable to that of the reference antibody ADC
HIC [8]: 12.02 min
ka (h.TF-His [9]): 197000 M⁻¹ s⁻¹
kdis (h.TF-His [9]): 0.00506 s⁻¹
NCI-H358 EC50 [10]: 4.727 ng/mL

B3: 22F11H5-hz1 (antibody)
heavy: QVQLVQSGAEVKQPGASVKVSCKASGYTFTTYWMHWVRQAPGQGLEWMGMIDPSDSYTTYAQKFQGRVTLTVDTSTSTAYMELSSLRSEDTAVYYCARGSGPGLFAYWGQGTLVTVSS[sequence of human IgG1 constant region omitted]
light: DIQETQSPSSLSASVGDRVTITCRASQDIRNYLNWYQQKPGKAPKLLIYHTSRLQSGVPSRFSGSGSGTDYTLTISSLQPEDFATYYCQQGNMPPYTFGQGTKVEIKRTVAAPSVFIFPPSDEQLKSGTASVVCLLNNFYPREAKVQWKVDNALQSGNSQESVTEQDSKDSTYSLSSTLTLSKADYEKHKVYACEVTHQGLSSPVTKSFNRGEC
c.TF-His EC50 (c.TF-His [1]): 11.41 ng/mL
endocytosis rate compared with reference antibody (in words) (NCI-H358 cells): substantially comparable to that of the reference antibody
KYSE520 EC50 [2]: 35.7 ng/mL
h.TF-His EC50 (h.TF-His [3]): 8.577 ng/mL
binding activity (in words) (h.TF-His [3]): good binding activity
EC50 (TF antigen): 5.15 ng/mL
NCI-H358 EC50 [4]: 67.09 ng/mL
change in affinity after storage in human serum [11]: no significant change in affinity
ka (c.TF-His [6]): 324000 M⁻¹ s⁻¹
kdis (c.TF-His [6]): 0.00411 s⁻¹
killing IC50 compared with reference antibody ADC (in words) [7]: substantially comparable to that of the reference antibody ADC
HIC [8]: 10.89 min
ka (h.TF-His [9]): 302000 M⁻¹ s⁻¹
kdis (h.TF-His [9]): 0.00296 s⁻¹
NCI-H358 EC50 [10]: 11.95 ng/mL
anti-tumor effects in mice (in words) [12]: good anti-tumor effects

B4: 30G11B7 (conjugate)
heavy: EVQLVESGGGLVKPGGSLRLSCAASGFTFSDYGMFWVRQAPGKGLEWVAYISRGSTTIYYADSVKGRFTISRDNAKNSLYLQMNSLRAEDTAVYFCTRRYYGDYFDYWGQGTLVTVSS[sequence of human IgG1 constant region omitted]
light: EIVLTQSPDFQSVTPKEKVTITCRASQSISNYLHWYQQKPDQSPKLLIKYASQSISGVPSRFSGSGSGTDFTLTINSLEAEDAATYFCQQSYNWPLTFGQGTKVEIKRTVAAPSVFIFPPSDEQLKSGTASVVCLLNNFYPREAKVQWKVDNALQSGNSQESVTEQDSKDSTYSLSSTLTLSKADYEKHKVYACEVTHQGLSSPVTKSFNRGEC
anti-tumor effects in mice (in words) [12]: good anti-tumor effects

B5: 22F11H5-hz1-B81: ADC of antibody 22F11H5-hz1 with toxin-Linker B81 (DL-01), prepared by the TF-ADC (DAR8) method (conjugate)
heavy: QVQLVQSGAEVKQPGASVKVSCKASGYTFTTYWMHWVRQAPGQGLEWMGMIDPSDSYTTYAQKFQGRVTLTVDTSTSTAYMELSSLRSEDTAVYYCARGSGPGLFAYWGQGTLVTVSS[sequence of human IgG1 constant region omitted]
light: DIQETQSPSSLSASVGDRVTITCRASQDIRNYLNWYQQKPGKAPKLLIYHTSRLQSGVPSRFSGSGSGTDYTLTISSLQPEDFATYYCQQGNMPPYTFGQGTKVEIKRTVAAPSVFIFPPSDEQLKSGTASVVCLLNNFYPREAKVQWKVDNALQSGNSQESVTEQDSKDSTYSLSSTLTLSKADYEKHKVYACEVTHQGLSSPVTKSFNRGEC
EC50 (TF antigen): 8.83 ng/mL
TGI ([12]; first experiment, 1 mg/kg): 74.7%
TGI ([12]; first experiment, 3 mg/kg): 91.4%

B6: 27H8H3-hz1-B81: ADC of antibody 27H8H3-hz1 with toxin-Linker B81 (DL-01), prepared by the TF-ADC (DAR8) method (conjugate)
heavy: QVQLVQSGAEVKKPGASVKVSCKASGYTFTTYWMHWVRQAPGQGLEWMGMIDPSDSYTSYAQKFQGRVTLTVDTSTSTAYMELSSLRSEDTAVYYCTRGSGPGLFAYWGQGTLVTVSS[sequence of human IgG1 constant region omitted]
light: DIQETQSPSSLSASVGDRVTITCRASQGISNYLNWYQQKPGKAPKLLIYHTSRLHSGVPSRFSGSVSGTDFTLTISSLQPEDFATYFCQQGNTLPYTFGQGTKVEIKRTVAAPSVFIFPPSDEQLKSGTASVVCLLNNFYPREAKVQWKVDNALQSGNSQESVTEQDSKDSTYSLSSTLTLSKADYEKHKVYACEVTHQGLSSPVTKSFNRGEC
EC50 (TF antigen): 3.43 ng/mL
TGI ([12]; second experiment, 1 mg/kg): 52.8%

B7: 2B12B10-hz1-B81: ADC of antibody 2B12B10-hz1 with toxin-Linker B81 (DL-01), prepared by the TF-ADC (DAR8) method (conjugate)
heavy: EVQLVESGGGLVQPGGSLRLSCAASGFAFSDSGMHWVRQAPGKGLEWVAYISRDSNTIYYADSVKGRFTISRDNAKNSLYLQMNSLRAEDTAVYYCGRRYYGDYFDYWGQGTLVTVSS[sequence of human IgG1 constant region omitted]
light: DIVLTQSPATLSLSPGERATLSCRASQRVTNYLHWYQQKPGQSPRLLIKYASQSISGIPARFSGSGSGTDFTLTISSLEPEDFAVYFCQQSYNWPLTFGQGTKVEIKRTVAAPSVFIFPPSDEQLKSGTASVVCLLNNFYPREAKVQWKVDNALQSGNSQESVTEQDSKDSTYSLSSTLTLSKADYEKHKVYACEVTHQGLSSPVTKSFNRGEC
EC50 (TF antigen): 3.76 ng/mL
TGI ([12]; second experiment, 1 mg/kg): 41.4%

B8: 30G11B7-hz1-B81: ADC of antibody 30G11B7-hz1 with toxin-Linker B81 (DL-01), prepared by the TF-ADC (DAR8) method (conjugate)
heavy: EVQLVESGGGLVKPGGSLRLSCAASGFTFSDYGMFWVRQAPGKGLEWVAYISRGSTTIYYADSVKGRFTISRDNAKNSLYLQMNSLRAEDTAVYFCTRRYYGDYFDYWGQGTLVTVSS[sequence of human IgG1 constant region omitted]
light: EIVLTQSPDFQSVTPKEKVTITCRASQSISNYLHWYQQKPDQSPKLLIKYASQSISGVPSRFSGSGSGTDFTLTINSLEAEDAATYFCQQSYNWPLTFGQGTKVEIKRTVAAPSVFIFPPSDEQLKSGTASVVCLLNNFYPREAKVQWKVDNALQSGNSQESVTEQDSKDSTYSLSSTLTLSKADYEKHKVYACEVTHQGLSSPVTKSFNRGEC
EC50 (TF antigen): 7.75 ng/mL
TGI ([12]; first experiment, 1 mg/kg): 62.6%
TGI ([12]; first experiment, 3 mg/kg): 91.8%
